This passage reports fold decrease in casein phosphorylation activity of Bcr isolated from cells coexpressing Bcr-Abl results from patent US20040022772A1.

The test concerns the target p160 BCR (human) (UniProt P11274). The test is described as follows: cell-based or functional assay.
Chain of UniProt P11274 (P11274 whole entry): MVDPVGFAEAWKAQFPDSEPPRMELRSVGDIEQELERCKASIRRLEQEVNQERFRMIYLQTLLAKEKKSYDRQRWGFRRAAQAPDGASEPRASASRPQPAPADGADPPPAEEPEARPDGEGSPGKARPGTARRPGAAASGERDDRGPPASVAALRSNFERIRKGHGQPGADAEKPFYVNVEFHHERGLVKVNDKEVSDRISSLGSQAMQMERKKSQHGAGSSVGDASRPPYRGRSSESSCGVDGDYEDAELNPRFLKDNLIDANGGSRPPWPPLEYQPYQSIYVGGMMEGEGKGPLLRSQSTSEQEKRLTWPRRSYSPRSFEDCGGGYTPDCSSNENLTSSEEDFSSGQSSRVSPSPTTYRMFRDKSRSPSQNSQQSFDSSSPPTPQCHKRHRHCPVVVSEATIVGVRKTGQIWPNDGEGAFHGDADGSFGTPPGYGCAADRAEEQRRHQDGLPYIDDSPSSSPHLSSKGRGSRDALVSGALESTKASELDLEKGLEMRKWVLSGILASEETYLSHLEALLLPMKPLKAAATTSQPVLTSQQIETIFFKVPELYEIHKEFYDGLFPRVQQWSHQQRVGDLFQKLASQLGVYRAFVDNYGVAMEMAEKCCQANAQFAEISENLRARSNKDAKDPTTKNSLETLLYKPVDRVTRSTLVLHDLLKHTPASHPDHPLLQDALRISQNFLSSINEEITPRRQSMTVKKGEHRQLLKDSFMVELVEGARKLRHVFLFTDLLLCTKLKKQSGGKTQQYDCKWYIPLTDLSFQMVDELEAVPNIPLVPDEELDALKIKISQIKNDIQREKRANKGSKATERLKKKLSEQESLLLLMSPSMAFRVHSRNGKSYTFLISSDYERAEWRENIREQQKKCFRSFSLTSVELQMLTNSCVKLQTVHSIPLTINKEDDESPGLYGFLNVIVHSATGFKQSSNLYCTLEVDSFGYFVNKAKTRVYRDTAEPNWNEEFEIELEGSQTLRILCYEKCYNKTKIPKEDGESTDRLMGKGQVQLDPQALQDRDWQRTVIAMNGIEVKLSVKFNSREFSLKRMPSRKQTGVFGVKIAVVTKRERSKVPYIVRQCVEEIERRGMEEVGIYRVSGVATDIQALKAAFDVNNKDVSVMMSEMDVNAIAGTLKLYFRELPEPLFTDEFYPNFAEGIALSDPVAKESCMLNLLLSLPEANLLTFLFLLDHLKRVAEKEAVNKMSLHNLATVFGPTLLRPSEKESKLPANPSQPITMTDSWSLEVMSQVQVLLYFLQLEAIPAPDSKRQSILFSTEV

As for p210 BCR-ABL, the fold decrease in casein phosphorylation activity of Bcr isolated from cells coexpressing Bcr-Abl is 25 fold.
